# The campaign covered roughly 360,000 compounds. About 6,000 (1.7%) were called active. Inconclusive means that the source gave no clear call. Such entries were picked first, then a sample of the others. Calls follow the shape of the dose curve; as a rule, active = well fitted cell-killing curve with a large enough effect; inconclusive = small, poorly fitted or top-dose-only effect, or effect the other way; inactive = flat fitted curve, though single readings scatter. No potency is given beside an inconclusive call; the fits are too rough.
# Test: qHTS for induction of synthetic lethality in tumor cells producing 2HG: qHTS for the HT-1080-NT fibrosarcoma cell line;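 also: NT is the 2HG producing partner of a matched IDH1 knockdown line; nearly all actives have a fitted effect of over 55% in size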;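 as to activity, negative = less viability: 0% = DMSO-treated cells and -100% = media-only wells without cells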
# Conditions: HT-1080-NT fibrosarcoma viability, CellTiter-Glo ATP luminescence, 48 h; activity, negative = less viability: at 46.1 µM (top of the series) unless noted
# Summary of the method: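 A 48-hour cytotoxicity screen used HT-1080-NT cells plated 2 hours before compound delivery. ATP-based CellTiter-Glo luminescence measured viability, normalized to DMSO and no-cell controls.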
# Potency is read from the fitted curve at half-maximal effect; tags tell the direction and shape of the fitted curve.
Compound,Potency,"activity, negative = less viability"
O=[N+]([O-])c1cccc(S(=O)(=O)NCCCn2ccnc2)c1,"inconclusive [rising, partial curve, poor fit]",–
NC(=O)c1cc2c3ccccc3ccn2c1-c1ccccc1,active: 1.64 µM,–
Cc1ccc(S(N)(=O)=O)cc1NC(=O)/C=C/c1ccc2c(c1)OCO2,inactive,–
CN(C)CCNC(=O)c1cccc(-c2cnc3c(NC=O)cc(/C=C/c4ccccc4)cn23)c1,"inconclusive [cytotoxic, single point]",–
COc1ncc(-c2c(-c3ccccc3OC)sc3ccccc23)cn1,"inconclusive [cytotoxic, single point]",–
CCn1c(COc2ccccc2C)nnc1SCC(=O)N1CCN(c2ccccc2)CC1,"inconclusive [cytotoxic, full curve]",–
CCOC(=O)N1CCN(C2=C(NS(=O)(=O)c3ccccc3)C(=O)c3ccccc3C2=O)CC1,"inconclusive [cytotoxic, single point]",–
CSc1ccc(CNc2nc3ccccc3n3cnnc23)cc1,"inconclusive [rising, partial curve, poor fit]",–
Cc1cc(C(C)(C)C)cc(C)c1CCNC(=O)c1ccc[n+]([O-])c1,"inconclusive [cytotoxic, single point]",–
Cc1ccc(-c2nc(NCCN(C)C)c3ccccc3n2)cc1,"inconclusive [cytotoxic, single point]",–
COc1ccc(C(C)(O)c2nc(-c3ccc(Cl)cc3)cs2)cc1 (centres undefined),"inconclusive [cytotoxic, single point]",–
COc1cc(/C=C2\C(=N)N3N=C(C)SC3=NC2=O)cc(Cl)c1OCCOc1ccc(NC(C)=O)cc1,inactive,–
O=C1NCC(COc2ccc([N+](=O)[O-])cc2)O1 (centres undefined),inactive,–
COc1ccc(OCc2cc(C(=O)N3CCCCCCC3)no2)c(Cl)c1,inactive,–
COC(=O)[C@@H](N)CS,"inconclusive [rising, single point]",–
O=C(OCc1cn([C@@H]2CN(Cc3cccs3)[C@@H](c3ccc(Cl)cc3)C[C@H]2O)nn1)c1ccccc1,inactive,–
COc1ccc(C(=O)Nc2c(N)nc[nH]c2=O)cc1,"inconclusive [rising, single point]",–
S=c1nc[nH]c2c1[nH]c1ccc(Cl)cc12,"inconclusive [rising, single point]",–
Cc1ccc(-n2nnnc2Sc2nc([N+](=O)[O-])nn2C)c(C)c1,inactive,–
COc1ccc(Cl)cc1NC(=O)CCNC(=O)Cn1ccc2ccccc2c1=O,inactive,–
COc1ccc(Nc2nc(-c3c(C)nc4ncccn34)cs2)cc1,active: 0.013 µM,–
Cc1cccc(C)c1OCC(O)CNC(C)C (centres undefined),inactive,–
CN1CCN(CCCc2c3c(cc4c2CCC4)CCC3)CC1,inactive,–
CSc1ccccc1NC(=O)CSc1cccc[n+]1[O-],inactive,–
CCCCCCCCCc1conc1C(=O)/C=C/c1oc2c(c1C)CCC(C)C2 (centres undefined),"inconclusive [cytotoxic, single point]",–
CCOC(=O)N1CCC(Nc2nc3ccccc3n3nnnc23)CC1,inactive,–
CC(C)(CNC(=O)c1cccc(F)c1)CNC(=O)c1cccc(F)c1,inactive,–

Compound,Potency,"activity, negative = less viability"
Cc1ccccc1Nc1nc(N)nc(CSc2ccc(F)cc2)n1,"inconclusive [cytotoxic, single point]",–
CC(C)N1CCNCC1,inactive,–
Cc1cc(C2=NNC(=NCCc3ccccc3)SC2)c(C)n1CC1CCCO1 (centres undefined),"inconclusive [cytotoxic, single point]",–
O=C(/C=C/c1ccc(-c2ccccc2[N+](=O)[O-])o1)c1ccc(F)cc1,active: 15.8 µM,–
CCN(CC)N=Nc1cccc(NC(C)=O)c1,"inconclusive [cytotoxic, single point]",–
CCCc1cnc(Nc2nc(C(N)Cc3ccc(OC)cc3)cs2)nc1 (centres undefined),active: 20.6 µM,–
Cc1c(OCc2ccccc2)cccc1OCc1ccccc1,"inconclusive [rising, partial curve, poor fit]",–
CCCCN(C(=O)CSc1nnc(-c2ccc(OC)cc2)n1CC)c1c(N)n(Cc2ccccc2)c(=O)[nH]c1=O,inactive,–
CCC(C)COC(c1ccccc1)(c1ccccc1)C(Oc1nc(C)cc(C)n1)C(=O)O (centres undefined),"inconclusive [cytotoxic, single point]",–
Cn1cc(SCC(=O)Nc2nc3ccccc3s2)c2ccccc21,–,inconclusive: -34.4% [cytotoxic]
CC(/C=N/NC(=O)c1ccc2nc(C)[nH]c2c1)=C\c1ccccc1,inactive,–
S=c1[nH]nc(Cc2ccccc2)n1Cc1ccco1,active: 35.5 µM,–
COc1cccc2sc(Nc3nnc(-c4ccccc4Cl)o3)nc12,"inconclusive [cytotoxic, full curve, poor fit]",–
CCOc1ccc(NC(=S)NNC(=O)c2ccc(Br)cc2)cc1,inactive,–
CCOc1ccc(S(=O)(=O)Nc2cnc3ccccc3c2)cc1,–,inconclusive: -7.99% [cytotoxic]
CN(C)CCC(Oc1ccccc1OCc1ccccc1)c1ccccc1 (centres undefined),"inconclusive [cytotoxic, single point]",–
COc1cc(C)ccc1Oc1ccc([N+](=O)[O-])cc1,inactive,–
COc1ccc(N2CCN(C(=O)CNC(=O)Cc3ccc(Cl)cc3)CC2)cc1,"inconclusive [cytotoxic, single point]",–
Cc1ccc2[nH]c3c(c2c1)CCCC3NCCO (centres undefined),"inconclusive [cytotoxic, partial curve]",–
O=C(Cc1ccccc1)NC1CCSc2ccccc21 (centres undefined),"inconclusive [rising, single point]",–
CC(C)C(=O)Nc1cccc(S(=O)(=O)NC2=NCCC2)c1,inactive,–
Cc1ccccc1CNC(=O)C(=O)NCC1OCCCN1S(=O)(=O)c1cccs1 (centres undefined),inactive,–
CCn1c(CNC(=O)COc2ccc(C(C)C)cc2)nnc1SCC(=O)Nc1ccc(F)cc1,"inconclusive [cytotoxic, single point]",–
COc1ccc(NC(=O)c2cc(-c3sc(NC(=O)c4ccccc4)nc3C)n(CCO)n2)cc1,"inconclusive [cytotoxic, single point]",–
Cc1ccc2c(c1)N(CC(=O)NCC1CCCO1)C(=O)C(C(C)C)O2 (centres undefined),inactive,–
CC1CCCCN1S(=O)(=O)Cc1ccccc1Cl (centres undefined),inactive,–
Cc1nc(Cn2c3ccc(NC(=S)NC4CCCCC4)cc3c(=O)n2C)cs1,inactive,–

Compound,Potency,"activity, negative = less viability"
COc1ccc(NC(=S)N(CCc2nc3cc(C)c(C)cc3[nH]2)Cc2cccnc2)cc1,"inconclusive [cytotoxic, single point]",–
CC1(C)CC(=O)C=C(c2ccc(Oc3ccccc3)cc2)C1,"inconclusive [cytotoxic, single point]",–
CCOc1ccc(Cl)cc1S(=O)(=O)n1cnc2ccccc21,active: 11.2 µM,–
COc1ccccc1NC(=O)Nc1ccc2c(c1)nnn2C,inactive,–
COc1cccc(Nc2nc(C(N)CCc3ccccc3)cs2)n1 (centres undefined),"inconclusive [cytotoxic, single point]",–
CC(=O)c1c(C)[nH]c(C(=O)N2CCN(c3ccc(F)cc3)CC2)c1C,"inconclusive [cytotoxic, single point]",–
Cc1ccc(C)c(Nc2cc(C)nc(-c3ccccc3O)n2)c1,"inconclusive [cytotoxic, single point]",–
C=C(C)Cn1c2ccc(NC(=O)NCCc3ccccc3)cc2c(=O)n1C,inactive,–
CCCCNC(=S)NNC(=O)CCn1nc(C)c(Br)c1C,active: 0.891 µM,–
COc1ccc(OCC(Cn2cnc3ccccc32)OC(C)=O)cc1 (centres undefined),inactive,–
O=C1NC(c2ccc(Br)cc2)Nc2ccccc21 (centres undefined),active: 5.8 µM,–
O=C(Nc1ccc2c(c1)OCCO2)C(C1CC1)N1CCN(c2ccc(F)cc2)CC1 (centres undefined),"inconclusive [rising, single point]",–
CCN1CCN(Cc2ccc(NC(=O)c3cc(NC(=O)C(=O)c4c[nH]c5ccccc45)cc(OC)c3)cc2C(F)(F)F)CC1,active: 16.4 µM,–
COC(=O)C1=C(C(=O)OC)[C@@H]2N(Cc3ccccc3)c3ccccc3[C@@]23C[C@@H](C(=O)OC)N(C(C)=O)C3=N1,inactive,–
CC(C)Cc1ccc(S(=O)(=O)Nc2ccccn2)cc1,inactive,–
CCCCN1CC(COCc2ccccc2)Oc2cccc(OCCN3C(=O)[C@@H]4[C@H](C3=O)C3C=C[C@H]4C3)c2S1(=O)=O (some centres undefined),"inconclusive [cytotoxic, single point]",–
Cc1nc(Nc2ccc(F)cc2)[nH]c(=O)c1CCC(C)C,"inconclusive [cytotoxic, single point]",–
COc1ccc(C(O)c2nc(-c3ccc(OC)c(OC)c3)cs2)cc1 (centres undefined),inactive,–
CCN(CC)c1ccc(NC(=O)c2ccc3c(c2)c(C)c(C)n3C)cc1,active: 18.4 µM,–
CCC(O)C1CCN(C(=O)c2cc(COc3ccc4ncccc4c3)on2)CC1 (centres undefined),"inconclusive [cytotoxic, partial curve]",–
COc1ccc(C(=O)COc2ccccc2C(=O)Nc2ccccc2)cc1,inactive,–
CC(=O)Nc1ccc(/C=C/C(=O)c2ccc3c(c2)OCCO3)cc1,"inconclusive [cytotoxic, single point]",–
CC[n+]1c(/C=C(\C)Nc2ccccc2)sc2ccccc21,inactive,–
Cc1ccc2nc(NCCCO)nc(-c3ccccc3)c2c1,"inconclusive [cytotoxic, partial curve]",–
CC(=O)Nc1ccc(-c2csc(NC(=O)Cc3cccc(F)c3)n2)cc1,"inconclusive [cytotoxic, single point]",–

# — PubChem BioAssay AID686970 (National Center for Advancing Translational Sciences (NCATS), 2013)
